From the supplement of paper PMC3334620
In all, about 33,000 sequences were measured (“E-score (-0.5 to 0.5)”: median about -0.011, highest 2% from about 0.28 on). The list shows a part of the results.

Molecular target: T1, Gcr1 (UniProt P07261)
T1 sequence: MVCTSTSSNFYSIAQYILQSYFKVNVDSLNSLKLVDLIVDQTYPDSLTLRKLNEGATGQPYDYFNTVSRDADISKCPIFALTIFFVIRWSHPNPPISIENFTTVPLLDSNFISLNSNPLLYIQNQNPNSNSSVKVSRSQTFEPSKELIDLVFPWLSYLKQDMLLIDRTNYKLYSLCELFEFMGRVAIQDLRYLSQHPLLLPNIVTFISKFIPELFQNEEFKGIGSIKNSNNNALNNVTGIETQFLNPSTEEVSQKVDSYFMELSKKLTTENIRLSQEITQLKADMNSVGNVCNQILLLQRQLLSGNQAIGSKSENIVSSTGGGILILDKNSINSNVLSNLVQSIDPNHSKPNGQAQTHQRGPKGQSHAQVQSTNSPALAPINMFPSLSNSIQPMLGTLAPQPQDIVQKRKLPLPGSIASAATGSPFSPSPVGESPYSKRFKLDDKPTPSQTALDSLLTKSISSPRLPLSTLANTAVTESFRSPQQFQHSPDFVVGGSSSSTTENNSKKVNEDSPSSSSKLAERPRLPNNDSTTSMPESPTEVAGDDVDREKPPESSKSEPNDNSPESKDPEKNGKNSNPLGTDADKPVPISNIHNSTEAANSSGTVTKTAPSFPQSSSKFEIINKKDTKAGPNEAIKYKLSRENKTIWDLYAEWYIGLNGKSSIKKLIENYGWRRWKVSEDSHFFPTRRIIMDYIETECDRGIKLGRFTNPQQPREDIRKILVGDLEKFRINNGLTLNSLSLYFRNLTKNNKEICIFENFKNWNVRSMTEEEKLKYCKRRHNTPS
Assay: PBM E-score (8-mer binding enrichment) (E-score (-0.5 to 0.5)); higher = stronger / more preferred TF binding; most listed sequences are background and not binding sites
Conditions: protein concentration: 100 nM; construct: GST-full length
Experimental: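 Universal 'all 10-mer' protein binding microarrays (Agilent AMADID 015681) probed with GST-tagged S. cerevisiae TFs (full-length or DBD) made by in vitro transcription/translation (PURExpress), about 100-200 nM. Bound TF was detected with fluorescent anti-GST. Each ungapped 8-mer (which stands for itself and its reverse complement) is scored by the PBM enrichment score (E-score), a modified Wilcoxon-Mann-Whitney statistic from -0.5 to +0.5, computed with the Universal PBM Analysis Suite. Scale: above 0.35 generally sequence-specific binding.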

Sequence | PBM E-score
TACAATAA | -0.0889
AGCGACGA | -0.264
TACCATAA | -0.0155
GGGACGAC | -0.263
ATGTTGCA | 0.131
AAAGGTCA | -0.149
GTGCCACA | -0.0702
CCCCGCTA | 0.0143
GGTCGTTA | -0.0908
TCACCAGA | -0.053
GGGTAGCA | 0.0203
CCTAACCA | -0.0514
GCCCAATA | 0.201
ATTGTCAC | -0.199
AGAGACCG | 0.101
CATGGAGC | -0.0926
GCCGTATA | 0.197
GCACCTCC | 0.0586
CTTGGAGC | -0.0903
AAAGCGGA | 0.00092
CGGCCGTC | -0.245
CATCCGAA | 0.0797
CACTGCCC | -0.202
AGGCGGCG | 0.107
AAGAGCGC | -0.0963

Sequence | PBM E-score
GGAACACA | 0.00024
ACCCCCGG | -0.0678
CGGGTAAG | -0.148
ACTATCCC | -0.207
CGTTAAAA | -0.00724
CGACACAC | -0.0424
AAGCGAGG | 0.127
AGACAGAG | -0.131
ATGCAGCC | -0.0977
CGGAATGA | -0.0542
CAAAACCG | -0.117
GATCGAGA | -0.207
TACCACGA | -0.0214
CGAAGCTC | 0.118
GGACTCGA | 0.0404
ATTGCGCA | -0.14
ATTGGTTC | 0.189
ATACGGTC | -0.134
GAATGCTA | -0.121
CCTTCATC | -0.13
GGTATAAA | 0.0226
TAACATAA | 0.0865
GACCGCTA | 0.0356
ATTCTGTG | 0.0737
GCCATTCC | -0.0224

Sequence | PBM E-score
ACACCACC | -0.0253
GGCTTCTA | 0.297
AGGCGCAG | 0.157
TGCTCTAA | -0.0393
GATATATA | 0.0599
CGCTATGC | -0.0477
CAGTCTAC | -0.0756
ACTACTTC | -0.00304
AGGGAAAT | -0.173
CGGCAACC | 0.29
AACGCCAA | -0.0477
GAGTGATA | -0.122
AGAAGGAG | 0.0188
ATGGCCGG | -0.108
CCCGCTCA | -0.133
AGAACCAA | 0.085
ACCCAATC | 0.0645
CTGGGCGC | 0.188
AGGATTGA | 0.106
CAATTGGG | -0.0107
AGCAATCG | -0.0942
GACTGGCA | -0.0492
ATCTTGTC | 0.0474
CGCATGGA | -0.081
CATTATGG | 0.0489

Sequence | PBM E-score
CCTTCGCG | 0.0246
CTCTCTGA | -0.0303
CTAACCGA | -0.194
CATTGTTA | 0.0221
ATGTGGCC | -0.0967
AGTGTGGC | 0.108
GGAACCCA | 0.394
CATTCCAG | 0.0871
CACAAGTC | -0.0789
GGCCTGGA | -0.148
ATGCTCGA | 0.0688
ATGATAAT | -0.0923
CCGTCCCA | 0.0146
AGTGTCCC | -0.0758
ATCAGGTC | -0.062
GCTCATAA | -0.0403
AATAATCG | 0.186
AAAGTGGC | 0.295
GATGGGTA | 0.0154
ACCGGTAG | 0.141
AAACATGA | 0.0477
TCTCTTAA | -0.123
GGGCCATA | 0.165
CTTCGCAA | 0.159
TATAGCGA | -0.147

Sequence | PBM E-score
ACGGATAC | 0.14
CACCAGCC | 0.0514
CTTTGACA | -0.0963
CTTGGCCA | -0.0769
CGGGTAGC | 0.0251
ATATAGCC | 0.011
CTTGGCAC | 0.187
GCCAGAAC | 0.00095
ACGTTTGA | -0.0706
AGTTATAG | -0.0406
ATTACCTA | -0.0146
AGCTCGAC | 0.027
CCCAGGCC | -0.126
CGGTTGTC | -0.149
GCGACTAA | 0.0904
ATATCTAC | -0.176
GCCTGTAA | 0.109
ATCTTCCA | 0.137
ACCGCGGA | -0.0696
ACTACCAA | 0.0195
AGATAACC | 0.0498
AGTGAGAG | -0.256
CAGAGACG | 0.0567
GCCCAGCA | -0.0906
CGTTGACA | -0.307

Sequence | PBM E-score
GAAAGAAC | -0.0712
ACGGGGAC | 0.0874
AGCTTTAC | -0.194
AGGAAGAA | -0.162
ATCTTAGG | 0.242
AACCTCGT | -0.00914
AGACTAGG | 0.036
CGGATAGA | -0.158
ATCAGATA | -0.111
GTGGTGGA | 0.24
CCCACAGA | -0.0146
CGATTAGA | 0.0902
GGTACCTA | 0.123
CGTACTAA | -0.00353
AGTGGGCG | 0.21
AATCCGAC | -0.0961
GGTGGCCA | -0.0439
GAAAGATA | 0.0822
ACAATGGA | 0.114
ACGCTTCC | 0.313
CGCTCCGA | -0.0796
ACCCCCCA | -0.262
CGACTGAA | 0.123
CTGTACTC | 0.0724
GACTAAAC | -0.0931

Sequence | PBM E-score
TCTATACA | 0.0121
CAAGCGTG | -0.246
ATCCAGGC | 0.105
CTCTAGCC | -0.0711
CCGAAGAC | -0.0175
CGCGTTGA | 0.0422
CTGTCGTA | -0.167
GCCCTCAA | -0.0439
ACCGGAGA | -0.0699
GGTCCCTA | 0.147
CGATATAC | 0.065
AACCCGAG | -0.0239
CGTAGAGA | -0.153
CTCGCCGC | -0.156
CTTCTCAA | 0.122
CACTGCGA | -0.0736
ACGTGCTA | -0.151
ATCCACGC | -0.00091
GTTTTACA | 0.0334
CTCTATTC | 0.0878
GTAATGAC | -0.0576
GTAGGTTA | 0.0377
